Screen size: about 220,000 compounds; about 16,000 (7.3%) were called active. The inconclusive results got no clear call from the source; some entries with a clear call stand among them for comparison. Calls come from the whole dose curve; as a rule, active = well fitted inhibition curve with a large enough effect (not every such curve was filed as active); inconclusive = small, poorly fitted or top-dose-only effect, or another doubt; inactive = no such curve, though single readings can be large or run the other way. Where the call is inconclusive, the potency comes from a doubtful curve fit.
Target: Aldehyde dehydrogenase 1A1 (Homo sapiens) (UniProt P00352)
Assay: qHTS Assay for Inhibitors of Aldehyde Dehydrogenase 1 (ALDH1A1);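 for activity, negative = inhibition: plate controls were no enzyme wells and a reference inhibitor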
Details: Purified ALDH1A1, NADH fluorescence, propionaldehyde substrate; series mostly up to 75.3 µM
Potency is the fitted concentration of half-maximal effect; tags give direction and shape of the fitted curve.

Sequence of UniProt P00352 (P00352 whole entry, looked up): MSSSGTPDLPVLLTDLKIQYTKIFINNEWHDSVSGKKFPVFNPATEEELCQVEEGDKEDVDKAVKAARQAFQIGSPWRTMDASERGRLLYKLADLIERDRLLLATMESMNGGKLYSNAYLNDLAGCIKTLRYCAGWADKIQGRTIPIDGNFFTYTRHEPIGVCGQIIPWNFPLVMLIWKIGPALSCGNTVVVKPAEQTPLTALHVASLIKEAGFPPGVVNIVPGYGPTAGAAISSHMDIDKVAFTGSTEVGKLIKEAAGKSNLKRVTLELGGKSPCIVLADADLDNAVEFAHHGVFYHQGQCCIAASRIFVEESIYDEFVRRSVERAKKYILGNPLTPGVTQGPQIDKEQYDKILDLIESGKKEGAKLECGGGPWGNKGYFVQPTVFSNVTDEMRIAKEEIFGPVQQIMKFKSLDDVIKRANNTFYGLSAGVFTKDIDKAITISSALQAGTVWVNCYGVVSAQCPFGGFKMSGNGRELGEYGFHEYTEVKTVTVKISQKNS

Potency, active:
COc1ccccc1NC(=O)c1ccc(NC(=O)COC(=O)C(C)C)cc1 0.891 µM
Oc1c(C=Nc2ccccc2)sc(=S)n1Cc1ccccc1 1.41 µM
CC(C)NC(=O)/C(C#N)=C/c1cccc(NC(=O)c2ccccc2Cl)c1 14.1 µM
Cc1ccc(N=Cc2ccc(N(C)C)cc2)cc1 0.562 µM
CC(C)C(=O)N(c1ccc(F)cc1)C1C=CS(=O)(=O)C1 (centres undefined) 28.2 µM
CSC1=C(C#N)C(c2ccccc2C)C(C#N)=C(N)N1 (centres undefined) 22.4 µM
CCn1c(=O)cc(SCC(=O)NCCC2=CCCCC2)c2ccccc21 14.1 µM
Cc1ccc(C)c(S(=O)(=O)N2CCN(CC(=O)N3CCc4ccccc4C3)CC2)c1 17.8 µM
Cn1cccc1Cc1nnc(SCC(=O)N2CCN(c3ccccc3)CC2)n1-c1ccc(F)cc1 14.1 µM
O=C(NN1C(=O)C2C3C=CC(O3)C2C1=O)c1cccc(Br)c1 (centres undefined) 28.2 µM
CCOC(=O)c1c(/N=C/C2C(=O)CC(C)(C)CC2=O)sc2c1CCCC2 8.91 µM
CN(C#N)c1nc(Cl)nc(Nc2cccc(Cl)c2)n1 3.98 µM
COc1ccc(NC(=S)Nc2ncccc2C)cc1OC 25.1 µM
Cc1cc(NS(=O)(=O)c2ccc(NS(=O)(=O)c3ccc(CC(C)C)cc3)cc2)nc(C)n1 31.6 µM
N#CC1=C2SCN(Cc3ccco3)CN2C(=O)CC1c1ccc(Cl)cc1 (centres undefined) 15.8 µM

Potency, inactive:
CCn1cc(CNC(=O)c2cccc([N+](=O)[O-])c2)cn1
O=C(O)CCSc1nnc(COc2ccc([N+](=O)[O-])cc2)n1-c1ccccc1
COc1ccc(Cl)cc1N(CC(=O)NC(C(C)C)C(C)C)S(C)(=O)=O
Nc1nc2ccc(N3CCOCC3)cc2s1
CCc1ccc(C2=NNC(=Nc3cccc(S(=O)(=O)N(C)C)c3)SC2)cc1
CCOC(CCn1c(SCC(=O)Nc2cc(C)on2)nc2ccccc2c1=O)OCC
CCN(CC)S(=O)(=O)c1csc(C(=O)NCc2ccccc2)c1
CCOc1ncccc1C(=O)Nc1ccccc1C(=O)NCc1ccc2c(c1)OCO2
Cc1ccccc1Nc1nc(N)nc(CSc2ccccc2)n1
COc1ccc(C(=O)NNC(=S)NC2CCCCC2)cc1OC
COc1ccc2sc(/C=C/c3ccccc3O)[n+](C)c2c1
COC(=O)/C(=C/c1c[nH]c2ccccc12)NC(C)=O
CSCc1nnc(NC(=O)c2ccc(S(=O)(=O)N(CC(C)C)CC(C)C)cc2)o1
CCC(C)[C@H](NC(=O)Nc1ccccc1F)C(=O)OC (some centres undefined)
O=c1c2ccccc2c(C=NC2CCN(Cc3ccccc3)CC2)c(O)n1Cc1ccc2c(c1)OCO2

Potency, inconclusive:
CCNc1cc2oc(=O)c(CN3CCOCC3)c(C)c2cc1C 31.6 µM [inhibitor, partial curve]
CC(=O)[C@H]1[C@H](c2cccc(Cl)c2)C(C#N)(C#N)[C@@H]2c3ccccc3C=CN21 35.5 µM [inhibitor, single point]
O=C1CC(N2CCN(c3ccc(Cl)c(Cl)c3)CC2)C(=O)N1 (centres undefined) 12.6 µM [inhibitor, partial curve]
c1ccc(N2N=C(c3cccs3)CC2c2ccco2)cc1 (centres undefined) 31.6 µM [inhibitor, partial curve]
Nc1cc(Cl)c([N+](=O)[O-])cc1O 39.8 µM [inhibitor, single point]
O=C(NCC1CCCO1)c1ccc(Oc2ccc([N+](=O)[O-])cc2Cl)cc1 (centres undefined) 18.9 µM [inhibitor, single point]
Cc1ccc(S(=O)(=O)N/N=C/c2ccccc2O)cc1[N+](=O)[O-] 39.8 µM [inhibitor, single point]
CN(C)C(=O)c1ccc(-c2nccc(N(C)Cc3ccco3)n2)cc1 39.8 µM [inhibitor, single point]
COc1ccccc1-c1ccc(/C=C2/C=C(CC(C)C)OC2=O)o1 28.2 µM [inhibitor, partial curve]
Cc1ccc2sc(NNC(=O)c3ccc4c(c3)OCCO4)nc2c1C 17.8 µM [inhibitor, single point]
C/C(CC(=O)NC1CCCCC1)=N\NC(=O)COc1ccc(C)cc1Br 25.1 µM [inhibitor, single point]
O=C(NCCCN1CCOCC1)C1CC(=O)N(CCc2ccccc2)C1 (centres undefined) 17.8 µM [inhibitor, partial curve]
Cc1cccn2c(=O)c3cc(C#N)c(=NC(=O)c4ccncc4)n(Cc4ccco4)c3nc12 25.1 µM [inhibitor, partial curve]
O=c1nc(-c2ccccc2)cc(-c2ccccc2)[nH]1 28.2 µM [inhibitor, partial curve]
c1ccc(-n2nnnc2Oc2ccc(-c3nnco3)cc2)cc1 39.8 µM [inhibitor, single point]
CCCn1c(-c2ccc(F)cc2)nc2c(NCCN3CCCC3)nc(C)nc21 28.2 µM [inhibitor, partial curve]
CN(C)c1ccc(C(CNC(=O)c2ccccc2)c2c[nH]c3ccccc23)cc1 (centres undefined) 31.6 µM [inhibitor, single point]
COc1ccc(CN2CCC(C(=O)N3CCN(c4ccccc4F)CC3)CC2)cc1OC 39.8 µM [inhibitor, single point]
COc1ccc(NC(=O)Cn2cccc2)cc1Cl 39.8 µM [inhibitor, single point]
CN(CCO)C1=NS(=O)(=O)c2cc([N+](=O)[O-])ccc21 25.1 µM [inhibitor, partial curve]
Cc1c([N+](=O)[O-])c(C(=O)Nc2ccc3c(c2)OCCO3)nn1C 39.8 µM [inhibitor, single point]
Cc1sc(NC(=O)c2ccccc2F)c(CN2CCCCC2C)c1C (centres undefined) 39.8 µM [inhibitor, single point]
CCCCc1nc2ccccc2c(NC(=O)CN2CCN(C)CC2)c1CCC 39.8 µM [inhibitor, single point]
COCCN1CCn2c(nc3cc(NC(=O)c4cccs4)ccc32)C1 17.8 µM [inhibitor, partial curve]
Cc1cccc(N=CC=C2OC(C)(C)C(C)(C)O2)c1 44.7 µM [inhibitor, single point]
Cc1cccc(C(=O)NC(=S)N2CCc3ccccc3C2)c1 39.8 µM [inhibitor, single point]
COc1cccc(Nc2ncc3nc(-c4ccccc4)c(=O)n(Cc4cccs4)c3n2)c1 25.1 µM [inhibitor, partial curve]
N#CC1(C#N)COC23CCCCC2C1(C#N)C(=N)O3 (centres undefined) 31.6 µM [inhibitor, partial curve]
COc1ccc(-c2cc(C(=O)OCC(=O)N3CCCC3)c3ccccc3n2)cc1 28.2 µM [inhibitor, partial curve]
COC(=O)c1cccc(NC2CC(=O)N(c3ccc(OC)c(OC)c3)C2=O)c1 (centres undefined) 31.6 µM [inhibitor, partial curve]
COc1ccc(NC(=S)N(CCCN2CCCCCC2)Cc2cccs2)cc1 39.8 µM [inhibitor, single point]
Nc1c(S(=O)(=O)c2cccc(Cl)c2)c2nc3ccccc3nc2n1CCN1CCOCC1 6.31 µM [inhibitor, single point]
Cc1cccc(CNc2ccnc(-c3cccnc3)n2)c1 31.6 µM [inhibitor, partial curve]
O=S(=O)(c1ccc(-c2csc(-c3cccnc3)n2)cc1)N1CCOCC1 25.1 µM [inhibitor, single point]
O=C(CSc1nnc(CCc2ccccc2)n1-c1ccc(Cl)cc1)NCc1ccccc1 12.6 µM [inhibitor, partial curve]
CCOC(=O)c1cc(-c2ccc(C)cc2)nc2nc(SC)[nH]c(=O)c12 25.1 µM [inhibitor, partial curve]
CCOc1ccccc1NC(=S)Nc1ncccc1C 37.7 µM [inhibitor, single point]
Cc1noc(C)c1-c1nccc(N2CCOCC2)n1 20 µM [inhibitor, partial curve]
CC(C)(C)c1ccc(C(=O)NC(=S)NNC(=O)c2cccs2)cc1 29.9 µM [inhibitor, single point]
Cc1cc(=S)[nH]c2ccccc12 7.08 µM [inhibitor, single point]
CC(=O)Nc1ccc2c(c1)nc1n2CCN(C2CCCCC2)C1 35.5 µM [inhibitor, single point]
CCn1c(SCC(=O)Nc2ccc(N3CCOCC3)c(Cl)c2)nnc1-c1ccc(N)cc1 39.8 µM [inhibitor, single point]

activity, negative = inhibition, inactive:
COC(=O)C1=C(C(=O)OC)[C@@H]2Nc3ccccc3[C@@]23C[C@@H](C(=O)OC)N(S(=O)(=O)c2ccc([N+](=O)[O-])cc2)C3=N1 -1.68% [at 13.5 µM]
O=C(O)CCn1cnc2c(=S)nc[nH]c21 -12.2% [at 13.5 µM]

Reference: PubChem BioAssay AID1030 (National Center for Advancing Translational Sciences (NCATS), 2008)
